Out of some 310,000 compounds screened, about 14,000 (4.5%) showed an effect of 50% or more. Effects have a minus sign here. Some of the results follow.
Target: human ether-à-go-go-related gene (hERG) potassium channel (human, UniProt Q12809)
Assay: primary screen, population patch clamp on CHO cells stably expressing hERG
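Also: peak tail current of the secondary pulse compared with the same well before compound.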

Chain of human ether-à-go-go-related gene (hERG) potassium channel (Q12809 whole entry, looked up): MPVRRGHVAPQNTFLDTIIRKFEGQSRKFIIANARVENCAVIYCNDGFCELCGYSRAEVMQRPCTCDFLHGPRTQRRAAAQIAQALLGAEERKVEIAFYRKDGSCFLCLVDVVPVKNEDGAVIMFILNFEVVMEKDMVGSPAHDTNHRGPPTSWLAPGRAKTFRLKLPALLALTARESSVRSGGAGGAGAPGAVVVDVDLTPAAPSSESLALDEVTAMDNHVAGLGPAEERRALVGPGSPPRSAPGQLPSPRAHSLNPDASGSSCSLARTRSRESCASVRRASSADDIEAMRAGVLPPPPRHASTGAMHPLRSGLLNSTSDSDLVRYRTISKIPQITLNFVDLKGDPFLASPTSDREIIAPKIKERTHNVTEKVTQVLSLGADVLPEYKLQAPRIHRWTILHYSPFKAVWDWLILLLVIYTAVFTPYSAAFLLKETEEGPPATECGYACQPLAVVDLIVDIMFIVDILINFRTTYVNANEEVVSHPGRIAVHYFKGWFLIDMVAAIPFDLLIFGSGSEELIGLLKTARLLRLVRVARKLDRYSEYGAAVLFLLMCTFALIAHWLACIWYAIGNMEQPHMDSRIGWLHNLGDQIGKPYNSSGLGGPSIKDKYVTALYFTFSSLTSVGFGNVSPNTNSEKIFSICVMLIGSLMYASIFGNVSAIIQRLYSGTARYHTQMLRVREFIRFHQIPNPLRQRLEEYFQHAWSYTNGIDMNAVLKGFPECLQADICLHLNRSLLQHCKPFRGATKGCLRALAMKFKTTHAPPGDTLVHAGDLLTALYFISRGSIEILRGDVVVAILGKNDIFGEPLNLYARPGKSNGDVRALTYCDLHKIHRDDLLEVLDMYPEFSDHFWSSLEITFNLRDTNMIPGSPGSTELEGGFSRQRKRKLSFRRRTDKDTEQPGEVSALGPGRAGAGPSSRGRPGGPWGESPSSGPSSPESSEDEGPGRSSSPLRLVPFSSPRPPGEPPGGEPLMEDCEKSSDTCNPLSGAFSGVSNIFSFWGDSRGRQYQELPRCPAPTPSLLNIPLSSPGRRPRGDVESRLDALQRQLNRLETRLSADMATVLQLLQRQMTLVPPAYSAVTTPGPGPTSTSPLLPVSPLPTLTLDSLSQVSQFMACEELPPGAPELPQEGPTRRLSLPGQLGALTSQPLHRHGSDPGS

Row | Compound | hERG current change (%, negative = inhibition) at 10uM
1 | COc1cccc(CN(CC(=O)NC2CCCC2)C(=O)Cn2nnc(-c3cccs3)n2)c1 | -18.3%
2 | Cc1nnsc1S(=O)(=O)c1ccccc1 | 10.5%
3 | O=c1[nH]c(/C=C\c2ccc(O)c(Cl)c2)nc(O)c1[N+](=O)[O-] | 18.8%
4 | Cc1cc(=O)oc2cc(OC(C)C(=O)NCCCn3ccnc3)ccc12 (stereo not shown) | 9.44%
5 | CN(CC(=O)Nc1cccc(F)c1)C(=O)C1=COCCO1 | 9.81%
6 | O=C(Nc1ccc2ccccc2c1)C(c1ccccc1)C1CCCC1 (stereo not shown) | 24.6%
7 | C/C(=N\N1CCCCCC1)c1c(O)n(-c2ccccc2)c(=O)[nH]c1=O | -13.9%
8 | CCOc1ccccc1NC(=O)CCSc1nc2n[nH]c(C)c2c(=N)n1-c1ccccc1Cl | -2.25%
9 | Cc1ccc(-c2c(C#N)c(N)n(-c3ccc(C)cc3)c(=O)c2C#N)cc1 | 8.01%
10 | CCOC(=O)c1cc(-c2ccccc2)sc1NC(=O)C(C)Sc1nnnn1C (stereo not shown) | 0.647%
11 | O=C(c1ccccc1F)N1CCN(Cc2nc3sc4c(c3c(=O)[nH]2)CCCC4)CC1 | -81.6%
12 | CCOCCc1nnc(NC(=O)Cc2ccc(Br)cc2)s1 | -5.23%
13 | Cc1nnc(SCC(=O)Nc2ccc3c(c2)OCO3)o1 | 14.6%
14 | Cc1ccc(-n2c(Cc3cccn3C)nnc2SCC(=O)N2CCc3ccccc32)cc1 | -14.8%
15 | Cc1ccc(NC(=O)Cn2cnc3c(nnn3Cc3ccc(F)cc3)c2=O)cc1 | 17.1%
16 | CCOc1ccc(N2C(=O)CC(Cc3cc(C)cc(C)c3)C2=O)cc1 (stereo not shown) | 16%
17 | O=C(O)Cc1ccc(O)c(F)c1 | 5.72%
18 | Cc1c(NP(=O)(Oc2ccccc2F)Oc2ccccc2F)c(=O)n(-c2ccccc2)n1C | -4.76%
19 | COc1ccc(CNC(=O)C(=O)NCCC2CCCCN2S(=O)(=O)c2cccs2)cc1 (stereo not shown) | -8.17%
20 | NNC(=O)C1SCCN1S(=O)(=O)c1ccc(Cl)cc1 (stereo not shown) | 4.21%
21 | CN(C)S(=O)(=O)c1ccc(C(=O)Nc2ccn(C)n2)cc1 | 2.07%
22 | O=C(c1ccc(NS(=O)(=O)c2cccs2)cc1)N1CCCCC1 | -4.46%
23 | O=C1/C(=C/c2ccncc2)SC(=S)N1Cc1ccccc1 | 2.45%
24 | CCn1c(O)c(C#N)c(C)cc1=O | 20.1%
25 | CCCNC(=O)c1ccc(N2CCC3(CC2)CC(c2ccc(Cl)cc2)=NO3)c([N+](=O)[O-])c1 | -74.7%
26 | Nc1cccc(N2C(=O)c3cccc4c(N)ccc(c34)C2=O)c1 | 17%
27 | COc1ccc(OC)c(S(=O)(=O)NCc2cccnc2)c1 | 4.09%
28 | CCOC(=O)C1CCCN(S(=O)(=O)c2c(C(=O)N3CCCCC3)c(C)n(C)c2C)C1 (stereo not shown) | 21%

Row | Compound | hERG current change (%, negative = inhibition) at 10uM
29 | COC(=O)CSc1nc2sc3c(c2c(=O)n1-c1ccccc1)CCN(C)C3 | -6.82%
30 | Cc1ccc(Nc2nc(=O)c3cc([N+](=O)[O-])ccc3s2)cc1 | 15%
31 | COc1cccc(-n2cnnc2SC(C)C(=O)NC2CCCC2)c1 (stereo not shown) | -17.3%
32 | COc1ccc(OC)c(NC(=O)COC(=O)CCC2CCCC2)c1 | 5.67%
33 | COc1ccc(OCc2cc(C(=O)NC3CCc4ccccc43)no2)c(Cl)c1 (stereo not shown) | 8.2%
34 | CCOC(=O)C(=O)NCC(c1cccs1)S(=O)(=O)c1ccc(C)cc1 (stereo not shown) | -27.7%
35 | Cc1ccc(S(=O)(=O)Nc2ccc(=O)n(Cc3ccc(Cl)c(Cl)c3)c2)cc1 | 9.65%
36 | Cc1cccc(C)c1NC(=O)C1(NC(=O)C2CCCN2C(=O)OC(C)(C)C)CCCCC1 (stereo not shown) | -24.7%
37 | CCOC(=O)c1ccccc1NC(=O)N1CCn2c(C)ccc2C1CC (stereo not shown) | 2.71%
38 | Cn1ccsc1=NC(=O)c1ccc(S(C)(=O)=O)c([N+](=O)[O-])c1 | -4.76%
39 | Cc1ccc(-c2cc(-c3ccccc3)cc(-c3ccccc3)[n+]2-c2ccccc2C(=O)O)cc1.[O-][Cl+3]([O-])([O-])[O-] | -21.5%
40 | Cc1cc(NC(=O)CSc2c3c(nc4ccccc24)CCC3)no1 | -7.62%
41 | O=c1c(C(c2nnnn2C2CCCCC2)N2CCCCC2)coc2ccc(Cl)cc12 (stereo not shown) | 0.931%
42 | CCOC(=O)c1c(CN(CC)CC)n(-c2ccccc2)c2ccc(O)cc12 | -66.7%
43 | Cc1ccc(Cn2c(N3CCCCCC3)nc3c2c(=O)[nH]c(=O)n3C)cc1 | 0.362%
44 | CCCCCCn1cc(C(=O)O)c(=O)c2cc(F)c(N3CCN(C)CC3)cc21 | -12.4%
45 | CN(C)S(=O)(=O)N1CCN(CC(O)COc2ccc(C(=O)c3ccccc3)cc2)CC1 (stereo not shown) | -70.2%
46 | C=CCN(C(=O)c1csnn1)C(C(=O)NCc1ccccc1)c1cccs1 (stereo not shown) | -5.05%
47 | Oc1ccc[n+](/C=C\c2ccccc2)c1.[Br-] | 4.32%
48 | CC(=O)N(C)c1ccc(OCC(O)CN(c2ccccc2C)S(=O)(=O)c2ccc(C)cc2)cc1 (stereo not shown) | -34.4%
49 | CCN(CC1COc2ccccc2O1)C(=S)Nc1ccc(F)cc1 (stereo not shown) | -14.4%
50 | COc1cccc(CN(C)C(=O)CSCC(=O)Nc2cccc(C)c2)c1OC | -15.1%
51 | Cc1ccccc1-n1c(SCc2c(C)noc2C)nnc1-c1cccnc1 | -9.48%
52 | Cc1cc([N+](=O)[O-])nn1CC(=O)Nc1nc2ccccc2s1 | -48.3%
53 | CCCn1c(=O)c(C(=O)NCc2ccc(OC)c(OC)c2)c(O)c2ccccc21 | 11.5%
54 | CN1CCN(Cc2nc3ccccc3c(=O)n2CC#N)CC1 | -2.87%
55 | COc1ccc(N2CCN(C(=O)Cc3ccc(Br)cc3)CC2)cc1 | -20.1%

— article PMC4336329 (PLoS ONE, 2015)
